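Briefly, cells in 96-well plates were exposed to five compound concentrations for 48 h, and endpoints were estimated by linear interpolation. GI50 marks 50% less growth. TGI denotes the concentration required for complete inhibition of growth.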
System: NCI-H322M lung
Test: growth of human tumour cells (NCI), 48 h

Row | Structure (SMILES) | TGI [µM] | GI50 [µM]
1 | COCC(=O)OC1CCn2c1nc1c2C(=O)C(C)=C(NC(C)=O)C1=O (stereo unspecified) | 38.6 | 
2 | Cc1cc(C)nc(NS(=O)(=O)c2ccc(Nc3c4ccccc4nc4c(C(=O)NCCO)cccc34)cc2)n1 | > 100 | 
3 | CS(=O)(=O)Nc1ccc(-c2ccc3c(NC(=O)C4CC4)n[nH]c3c2)cc1 | > 25 | > 21.4
4 | CC(C)(C)c1nc2c(o1)C(=Nc1ccc(F)cc1)c1ccccc1C2=O | 42.2 | 
5 | O=C(NN1C(=O)CSC1c1ccc(Cl)c(Cl)c1)c1ccncc1 (stereo unspecified) | > 100 | 
6 | O=C1NN=C(c2c[nH]c3ccccc23)CC1NCc1ccccc1 (stereo unspecified) | > 100 | 
7 | CCOC(=O)C(NC(=O)c1ccc(N=NN(C)C)cc1)C(C)C (stereo unspecified) | > 100 | 
8 | NCCN1CCN(c2nccc(-c3ccc4ccccc4c3)n2)CC1 | 4.99 | 2.07
9 | COc1ccc(/C=C/C(=O)c2sc(-n3nc(-c4ccccc4)cc3-c3ccccc3)nc2C)cc1OC | > 100 | 
10 | C=C1CC2C(=O)N(c3ccccc3)C(=O)C2CC1n1[nH]c(=O)n(Cc2ccccc2)c1=O (stereo unspecified) | > 100 | 
11 | COc1cc2c(cc1O)CC[n+]1cc3c(OC)c(OC)ccc3cc1-2 | > 100 | 
12 | c1ccc(-c2ccc(N=NN3CCCC3)cc2)cc1 | > 100 | 
13 | CCN(CC)C(=S)SS(=O)(=O)c1ccc(C)cc1 | > 100 | 
14 | COC(=O)/C=C\S/C(=C(/c1ccccc1)n1ccc(C(=O)OC)n1)c1ccccc1 | > 100 | 
15 | N#Cc1c(N)c(C(=O)O)nn(-c2cccc(C(F)(F)F)c2)c1=O | > 100 | 
16 | CCn1c(-c2nonc2N)nc2ccc(F)cc21 | > 25 | > 25
17 | O=C(c1ccccc1)[C@H]1Nc2cnccc2C2c3ccccc3CC21 (stereo partly specified) | > 100 | 
18 | Clc1ccc(OCc2nnc3n2N=C(c2ccc(Cl)cc2Cl)CS3)c(Cl)c1 | > 100 | 27.5
19 | Cc1cccc(NC(Nc2cccc(C)c2)=C(C(Cl)=C(Cl)Cl)[N+](=O)[O-])c1 | > 74.3 | 
20 | NC(CCSCC(F)F)C(=O)O (stereo unspecified) | > 100 | 
21 | C[C@@H]1C(=O)CC2(O)[C@@]13C[C@@H](OC(=O)[C@@H]3O)[C@@H](C)[C@@]21COC1=O (stereo partly specified) | > 100 | 
22 | CCN(Cc1c(F)cccc1F)c1ccc(CO)c(Cl)c1 | 9.48 | 1.34
23 | Cc1ccc2/c(=C/c3ccc(N(C)C)cc3)c3cc(-c4ccccc4)[n+](C)n3c2c1 | 2.06 | 0.657
24 | Cc1cc(C)nc(NS(=O)(=O)c2ccc(Nc3c4ccccc4nc4c(C(=O)N5CCN(CCOS(C)(=O)=O)CC5)ccc(Cl)c34)cc2)n1 | > 100 | 
25 | CC(=O)OCCOCBr | > 100 | 

Row | Structure (SMILES) | TGI [µM] | GI50 [µM]
26 | Cc1ccsc1C(=S)Nc1ccc(Cl)c(C(=O)OC(C(C)C)C(C)C)c1 | > 100 | 
27 | Cn1c(N)nc2c(nc(OCc3ccccc3)n2C2OC(CO)C(O)C2O)c1=O (stereo unspecified) | > 100 | 
28 | N#CC(C#N)=Cc1cccc(Oc2ccccc2)c1 | > 100 | 
29 | FC(F)(F)c1ccc2c(Nc3cccc(C4CC(c5ccccc5)=NN4c4ccc(Cl)cc4)c3)ccnc2c1 (stereo unspecified) | 87.3 | 16.6
30 | CCOC(=O)Cc1nn2c(=O)cc(C)nc2s1 | > 100 | 
31 | CC/C=C\C/C=C\C1CC(=O)NCCCNCCCCN1 (stereo unspecified) | > 100 | 
32 | Clc1ccc(CNc2nc3ccccc3nc2-c2cccs2)c(Cl)c1 | > 100 | 
33 | COC(=O)/C(=N\NC(=S)NN)C(C(=O)C(=O)Nc1ccccc1C(N)=O)c1nc2ccccc2[nH]c1=O (stereo unspecified) | > 100 | 
34 | CCCS(=O)(=O)c1nc(NC2CC2)cc(-c2ccc3c(ccn3C3CC(C)(C)NC(C)(C)C3)c2)n1 | 3.25 | 1.72
35 | COC(=O)c1cc2c3c(cc(NCCN)c2[nH]1)N(C(=O)c1cc2cc(OC)c(OC)c(OC)c2[nH]1)CC3CCl (stereo unspecified) | 0.606 | 
36 | COC(=O)c1cc(C(=O)OC)cc(-c2ccc3c(c2)-c2nc4c(c(-c5ccc(OC)cc5)c2CC3)CCc2ccc(-c3cc(C(=O)OC)cc(C(=O)OC)c3)cc2-4)c1 | 30.5 | 
37 | O=c1c2ccccc2c2c3c1cccc3c1cccc3c(=O)c4ccccc4c2c31 | > 100 | 
38 | CNc1nc(NC2CCCC2)nc(Sc2ccc(OC)cc2)n1 | > 10 | > 10
39 | CC12CCC(C/C1=N\NC(N)=O)C2(C)C (stereo unspecified) | > 100 | 
40 | CC(C)(C)OC(=O)c1ccc(NCc2cc(O)ccc2O)cc1 | > 89.6 | 
41 | O=C(Nc1cc(-c2ccccc2)[nH]n1)c1ccc(Cl)cc1 | > 100 | 6
42 | COC(=O)[C@H]1C=C[C@H](OC2OC(COC(C)=O)C(OC(C)=O)C(OC(C)=O)C2OC(C)=O)n2c(=O)n(-c3ccccc3)c(=O)n21 (stereo partly specified) | 32.4 | 
43 | CC(O)CN1C(=O)NC(Cc2ccccc2)C1=O (stereo unspecified) | > 100 | 
44 | O=P(O)(O)C(O)(Cn1ccnc1)P(=O)(O)O | > 100 | > 79.7
45 | O=c1c2cc3c(=O)n(CCc4ccccc4CO)c(=O)c3cc2c(=O)n1CCc1ccccc1CO | > 100 | 
46 | CCC1(CC)C(=O)NC(=S)N=C1N | > 100 | 
47 | COc1ccc(NC2=C(Br)C(=O)C(C)=C(C)C2=O)cc1 | 27.8 | 14.6
48 | CCOC(=O)c1csc(NC(=O)CCCC#N)n1 | > 100 | 
49 | COc1ccc(/C(C)=N/NC(=S)N(C)C)c(O)c1 | > 100 | 
50 | CCNC(=S)N/N=C/c1ccccn1 | > 100 | 

Row | Structure (SMILES) | TGI [µM] | GI50 [µM]
51 | CC1CCCC(C(=O)/C(=C/c2cccc(Cl)c2)C(=O)C(=O)O)C1 (stereo unspecified) | > 100 | 
52 | COc1cc(/C=C2\CC3C4CC=C5CC(N6CCCC6)CC[C@]5(C)C4CC[C@]3(C)C2OC(C)=O)ccc1OCCN1CCCC1 (stereo partly specified) | 20.4 | 7.63
53 | C=C1C(=O)O[C@H]2[C@H]1CC/C(COC(=O)c1cc3cc(OC)ccc3[nH]1)=C\CC[C@@]1(C)O[C@@H]21 | 4.56 | 1.88
54 | Cc1cc2c(cc1Cl)SC(NNc1cnc3ccccc3n1)=NS2(=O)=O | > 100 | 
55 | CC/C=C\C/C=C\C/C=C\CCCCCCCC(=O)OC(COC(=O)CCCCCCCCCCCCCCCCC)COC1OC(CO)C(O)C(O)C1O (stereo unspecified) | > 25 | 
56 | CCOc1cccc2nc3cccc(C(=O)NCCN(C)C)c3nc12 | 9.23 | 
57 | COC(=O)C1=C(C)N2[C@H](C(=O)O)CS[C@@]2(C)[C@H](C(=O)OC)[C@H]1c1cccc([N+](=O)[O-])c1 | > 100 | 
58 | CC[P+](C#Cc1ccccc1)(c1ccccc1)c1ccccc1 | 9.79 | 
59 | CC(O)(C(=O)N(O)c1ccc(Cl)cc1)c1ccc(Cl)cc1 (stereo unspecified) | > 100 | 
60 | COc1ccc(-c2cc(-c3cc(Cl)ccc3Cl)nc3nc(=S)[nH]c(N)c23)cc1 | > 100 | 42.1
61 | O=C(Nc1ccc(S(=O)(=O)N[C@@H](C(=O)O)c2ccccc2)cc1)c1ccc(F)cc1 | > 100 | 
62 | Clc1cccc(C2ON=C(c3ccccc3)N2C23CC4CC(CC(C4)C2)C3)c1Cl (stereo unspecified) | > 10 | 
63 | CN1CCN(C)C1c1cccc(C2N(C)CCN2C)c1 | > 100 | 
64 | CCOC(=O)C(C)NC(=O)N(C)C12CC3CC(CC(C3)C1)C2 (stereo unspecified) | > 500 | 
65 | COc1ccc(C(=O)C(C(=O)CCC(=O)Nc2cccc(C(F)(F)F)c2)c2ccccc2)cc1 (stereo unspecified) | > 100 | 
66 | COc1cc2c3c(n(CCCN4CCC(N)CC4)c(=O)c2cc1OC)-c1cc2c(cc1C3=O)OCO2 | 3.27 | 0.847
67 | Cc1cn(C2CC(OC(c3ccccc3)(c3ccccc3)c3ccccc3)C(COC(c3ccccc3)(c3ccccc3)c3ccccc3)O2)c(=O)[nH]c1=O (stereo unspecified) | > 100 | 
68 | Oc1ccc(Cc2ccccc2)c2cccnc12 | > 100 | 2.45
69 | COc1ccccc1C(=O)c1ccc2ccccc2c1 | > 100 | 
70 | COc1ccc2c(-c3cc4ccccc4o3)cc(=O)oc2c1 | > 100 | 
71 | CCOC(=O)/C(=C/c1ccco1)P(=O)(OCC)OCC | > 100 | 
72 | NS(=O)(=O)c1ccc(NC(=O)c2cccc3c(=O)c4ccccc4[nH]c23)cc1 | > 100 | 
73 | COc1ccc(/C=N/Nc2nc3ccccc3c(=O)n2-c2ccccc2)c(OCc2ccccc2)c1 | > 100 | 
74 | O=C1NC(=S)S/C1=C/c1ccco1 | > 100 | 
75 | COc1cc2c3c(n(C)c(=O)c2cc1OC)-c1cc2c(cc1/C3=C/CCCCBr)OCO2 | > 100 | 

Row | Structure (SMILES) | TGI [µM] | GI50 [µM]
76 | c1ccc2c(c1)N=C(c1cccc3ccccc13)CC(c1cccc3ccccc13)S2 (stereo unspecified) | 28.9 | 
77 | COc1cc2c(cc1OCCCOc1cc3c(cc1OC)C(=O)N1CCC[C@H]1CN3)N=C[C@@H]1CCCN1C2=O | 0.609 | 
78 | CC1(C)[C@@H]2C[C@H]1c1cnc(-c3ccccn3)cc1[C@H]2C(O)[C@@H]1c2cc(-c3ccccn3)ncc2[C@H]2C[C@@H]1C2(C)C (stereo partly specified) | 18.6 | 
79 | CC1=Nc2c(ccc3c2C(=O)c2ccccc2C3=O)NC(c2ccncc2)C1 (stereo unspecified) | > 100 | 
80 | O=c1oc2ccccc2c2nc3ccccc3cc12 | > 100 | 
81 | O=C(CN=C(CN(c1ccccc1)c1ccccc1)Oc1c(Cl)cc(Cl)cc1Cl)n1cnc2ccccc21 | > 100 | 
82 | CCN(C(=O)N[C@H](C(=O)N[C@@H](C)C(=O)OC)C(C)C)c1ccccc1 | > 100 | 
83 | C=C1CC=CC(C)(C)C1C/C=C(\C)C(O)CBr (stereo unspecified) | > 100 | 
84 | Brc1ccc2c(c1)-c1nc3c(cc1CC2)CCc1ccc(Br)cc1-3 | > 100 | 
85 | O=C1c2ccccc2-c2cccc3ccc(Cc4ccccc4)c1c23 | > 100 | 
86 | COc1cc(/C=C/c2cc(=O)cc(/C=C/c3ccc(O)c(OC)c3)o2)ccc1O | > 100 | 
87 | COC(=O)C(CCSC)NC(=O)CSc1nnc(COc2ccc(Cl)cc2)n1-c1ccccc1 (stereo unspecified) | 29.8 | 
88 | CCCNCc1cc(C)cc2c1nc(N1CCNCC1)n2Cc1cc(C)c(F)c(C)c1 | 18.9 | 5.88
89 | COC(=O)NC/C=C\c1nc(CC/C=C\C(=O)OC2CC3CC(=O)O[C@@H](/C=C/CC(C)C)C[C@@H]4CCC(C)C(C[C@@H](OC)CC(C2)O3)O4)co1 (stereo partly specified) | > 100 | 15.8
90 | NS(=O)(=O)c1nnc(NSc2ccc([N+](=O)[O-])cc2)s1 | > 100 | 
91 | Oc1c2c(c(O)c3ccccc13)=N[C@@H](c1ccccc1)[C@H](c1ccccc1)N=2 | > 100 | 
92 | NNC(=O)c1cccc2c1Oc1ccccc1S2 | > 100 | 
93 | Cc1c(C(=O)NN)nnn1-c1ccnc2c(C(F)(F)F)cccc12 | > 100 | > 100
94 | CCOP(=O)(OCC)c1cc(-c2ccccc2)ccc1N | > 100 | 
95 | COC(=O)c1sc2ncc3c(c2c1N)CC(C)CC3 (stereo unspecified) | > 100 | 
96 | O=C(NCCCNCCCCNCCCNC(=O)C(F)(F)F)C(F)(F)F | > 100 | 
97 | COc1cc(-c2cn(C)c(=O)c(C)c2C)cc(OC)c1CN1CC[C@H](N2CCN(c3ccc(N[C@H]4CCC(=O)NC4=O)cc3F)CC2)C(F)(F)C1 | 53.3 | 16.2
98 | Cc1ccc(-n2cc(-c3ccc(Cl)cc3)c3c2N=CN2NC(c4ccco4)=NC32)cc1 (stereo unspecified) | > 100 | 
99 | NC(N)=N/N=C/c1c(-c2ccccn2)nc2sc(Cl)cn12 | 11.9 | 5.72

From PubChem BioAssay (NCI)
